From PubChem BioAssay AID624296 (National Center for Advancing Translational Sciences (NCATS), 2012)
The whole screen tested about 350,000 compounds, of which about 9,900 (2.8%) were called active. The shares of active, inactive and inconclusive entries below differ from those in the screen. Calls follow the shape of the dose curve; as a rule, active = well fitted activation curve with a large enough effect; inconclusive = small, poorly fitted or top-dose-only effect; inactive = no such curve, though single readings can be large or run the other way. No potency is given beside an inconclusive call; the fits are too rough.

Assay: A quantitative high throughput screen for small molecules that induce DNA re-replication in MCF 10a normal breast cells. Also: nearly all actives have a fitted effect of over 50% in size. As to activity, positive = re-replication: % of control where 0% means no effect.
Conditions: MCF 10A DNA re-replication, Hoechst nuclear intensity, 48 h; activity, positive = re-replication: at 46.1 µM (top of the series)
Potency is read from the fitted curve at half-maximal effect; tags tell the direction and shape of the fitted curve.

| SMILES | Potency | activity, positive = re-replication |
| --- | --- | --- |
| CCC(C)c1ccc(-c2cc(C(=O)OCC(=O)Nc3cc(C)on3)c3ccccc3n2)cc1 (stereo not given) | inconclusive [activator, partial curve, poor fit] | – |
| Cc1cc(C)n2c(nc3ccccc32)c1C(=O)NCc1ccccc1 | inconclusive [activator, single point] | – |
| CCOc1ccccc1CNC(=O)CNC(=O)c1cccs1 | inconclusive [activator, single point] | – |
| CCOc1ccc(N/C=C/C(=O)c2cc(OC)c(OC)c(OC)c2)cc1 | inconclusive [activator, single point] | – |
| COc1cc(N(C(=O)Cc2cccs2)C(C(=O)NC2CCCCC2)c2cccc(OC)c2OC)ccc1-n1cnnn1 (stereo not given) | inconclusive [activator, partial curve, poor fit] | – |
| Cc1cccc(C)c1N(CC(=O)N1CCCC1)S(C)(=O)=O | inconclusive [activator, single point] | – |
| CC1CCCCN1C(=O)CCn1c(=S)oc2ccccc21 (stereo not given) | inconclusive [activator, partial curve, poor fit] | – |
| S=C1Cc2ccccc2C(c2ccc(Cl)cc2)N1 (stereo not given) | active: 16.4 µM | – |
| N#CC(=C(O)COC(=O)c1ccc2c(c1)OCCO2)c1nc2ccccc2[nH]1 | inconclusive [activator, partial curve, poor fit] | – |
| O=C(CNC(=O)c1cn2ccccc2n1)Nc1ccc(F)c(F)c1 | inconclusive [activator, partial curve, poor fit] | – |
| O=[N+]([O-])c1ccc(N2CCN(CCOc3nonc3-c3ccccc3)CC2)c(Cl)c1 | inactive | – |
| Cc1cc(C)cc(OCCCOc2cccc3cccnc23)c1 | inconclusive [activator, partial curve, poor fit] | – |
| COC(=O)C(NS(=O)(=O)c1ccc(NC(C)=O)cc1)C(C)C (stereo not given) | inconclusive [activator, single point] | – |
| CCN(CC)c1ccc(N=Cc2ccc([N+](=O)[O-])o2)cc1 | active: 23.1 µM | – |
| O=C(COc1cccnc1[N+](=O)[O-])Nc1ccccc1Sc1ccccc1 | inactive | – |
| CCN(CC)C(=O)Oc1ccc2c(=O)c(-c3ccc(OC)cc3)coc2c1 | active: 13 µM | – |
| C=CCNC(=O)/C(C#N)=C/c1c(N2CC(C)OC(C)C2)nc2ccccn2c1=O (stereo not given) | inconclusive [activator, single point] | – |
| CCOc1ccc(OCc2cccc(C(=O)N3CCCC3)c2)cc1 | inactive | – |
| CC(=O)c1ccc(OCC(=O)Nc2cccc(S(=O)(=O)N3CCCC3)c2)cc1 | inactive | – |
| CCc1nc(N2CCN(C(=O)c3ccco3)CC2)c2oc3ccccc3c2n1 | inconclusive [activator, single point] | – |
| COc1cc(OC)cc(C(=O)Nc2nc3ccccc3[nH]2)c1 | inconclusive [activator, partial curve, poor fit] | – |
| CN(C)N1C(N)=C(C#N)C(c2cccc([N+](=O)[O-])c2)C2=C1CC(C)(C)CC2=O (stereo not given) | inactive | – |
| CCO[C@H]1OC(C(=O)NCc2ccccc2)=C[C@@H](c2ccccc2)[C@@H]1CCCO | inconclusive [activator, single point] | – |

| SMILES | Potency | activity, positive = re-replication |
| --- | --- | --- |
| Cc1cccc(Oc2nc3c(c(=O)n(C)c(=O)n3C)n2C)c1 | inactive | – |
| O=C(O)c1ccc(-n2c(-c3ccc(Br)cc3)n[nH]c2=S)cc1 | inactive | – |
| CCC1CCCCN1CCN1C(=O)C2C(C(=O)Nc3cccc(OC)c3)C3C=CC2(O3)C1C(=O)NC1CCCCC1 (stereo not given) | – | inconclusive: -20.1% [activator] |
| CCN(CC)/C(=N\S(=O)(=O)c1ccccc1C)c1ccccc1 | inactive | – |
| Cc1cc(C(=O)CSc2nc3ccc(Cl)cc3[nH]2)c(C)n1CC1CCCO1 (stereo not given) | inconclusive [activator, single point] | – |
| CC(=O)c1ccc(OCC(=O)c2ccc(-c3ccccc3)cc2)cc1 | inconclusive [activator, partial curve, poor fit] | – |
| COc1ccc(-c2nc3ccccc3nc2-c2ccc(OC)cc2)cc1 | inconclusive [activator, partial curve, poor fit] | – |
| CCN1C(=NCCOC)N[C@@H](c2ccccc2)[C@H](C(=O)OC)[C@H]1C | inactive | – |
| Cc1cccc(Sc2c([N+](=O)[O-])ncn2C)c1 | inconclusive [activator, single point] | – |
| O=C(C1CCCN(Cc2ccncc2)C1)N1CCc2ccccc2C1 (stereo not given) | inactive | – |
| COC(=O)c1cc2ccccc2c(-c2c(O)ccc3ccccc23)c1O | inconclusive [activator, single point] | – |
| CCCCNc1c(-c2cccc(-c3cc(C(C)=O)cs3)c2)nc2ccc(C)cn12 | inconclusive [activator, full curve, poor fit] | – |
| O=C(O)CCC(=O)N(Cc1ccccc1)Cc1ccccc1 | active: 0.731 µM | – |
| Cc1ccc2nc(Cl)c(/C=N/n3c(C)nnc3C)cc2c1 | inactive | – |
| COc1ccccc1NC(=O)Nc1nc(CC(=O)NCc2ccc(F)cc2)cs1 | inconclusive [activator, single point] | – |
| Fc1ccc(-n2cc(-c3ccccc3)[n+]3c2SCC3)cc1 | inactive | – |
| Cc1ccc(C)c(SCC(=O)c2ccc[nH]2)c1 | inactive | – |
| Cc1ccccc1NC(=O)CSCCN1C(=O)c2ccccc2C1=O | inconclusive [activator, partial curve, poor fit] | – |
| Cc1ccc(S(=O)(=O)N2CCCCC2)cc1NC(=O)c1cc(F)c(F)c(F)c1F | inconclusive [activator, single point] | – |
| O=C(C1CCN(S(=O)(=O)c2cnc[nH]2)CC1)N1CCn2c1nc1ccccc12 | inactive | – |
| CS(=O)(=O)N(CC(=O)N1CCN(Cc2ccc3c(c2)OCO3)CC1)Cc1ccc(Cl)cc1 | inactive | – |
| CCN(CC)C(=O)c1ccc(-c2nnc(Nc3ccc(C(=O)N(C)C)cc3)c3ccccc23)cc1 | inconclusive [activator, single point] | – |
